# In article PMC4336329 (PLoS ONE, 2015):
# In all, about 310,000 compounds went through this assay and about 2,200 (0.71%) showed an effect of 50% or more. The effect is printed as a negative number. Some of the results follow.
# Target: human ether-à-go-go-related gene (hERG) potassium channel (human, UniProt Q12809)
# Assay: primary screen, population patch clamp on CHO cells stably expressing hERG
# human ether-à-go-go-related gene (hERG) potassium channel, sequence (Q12809 whole entry, looked up): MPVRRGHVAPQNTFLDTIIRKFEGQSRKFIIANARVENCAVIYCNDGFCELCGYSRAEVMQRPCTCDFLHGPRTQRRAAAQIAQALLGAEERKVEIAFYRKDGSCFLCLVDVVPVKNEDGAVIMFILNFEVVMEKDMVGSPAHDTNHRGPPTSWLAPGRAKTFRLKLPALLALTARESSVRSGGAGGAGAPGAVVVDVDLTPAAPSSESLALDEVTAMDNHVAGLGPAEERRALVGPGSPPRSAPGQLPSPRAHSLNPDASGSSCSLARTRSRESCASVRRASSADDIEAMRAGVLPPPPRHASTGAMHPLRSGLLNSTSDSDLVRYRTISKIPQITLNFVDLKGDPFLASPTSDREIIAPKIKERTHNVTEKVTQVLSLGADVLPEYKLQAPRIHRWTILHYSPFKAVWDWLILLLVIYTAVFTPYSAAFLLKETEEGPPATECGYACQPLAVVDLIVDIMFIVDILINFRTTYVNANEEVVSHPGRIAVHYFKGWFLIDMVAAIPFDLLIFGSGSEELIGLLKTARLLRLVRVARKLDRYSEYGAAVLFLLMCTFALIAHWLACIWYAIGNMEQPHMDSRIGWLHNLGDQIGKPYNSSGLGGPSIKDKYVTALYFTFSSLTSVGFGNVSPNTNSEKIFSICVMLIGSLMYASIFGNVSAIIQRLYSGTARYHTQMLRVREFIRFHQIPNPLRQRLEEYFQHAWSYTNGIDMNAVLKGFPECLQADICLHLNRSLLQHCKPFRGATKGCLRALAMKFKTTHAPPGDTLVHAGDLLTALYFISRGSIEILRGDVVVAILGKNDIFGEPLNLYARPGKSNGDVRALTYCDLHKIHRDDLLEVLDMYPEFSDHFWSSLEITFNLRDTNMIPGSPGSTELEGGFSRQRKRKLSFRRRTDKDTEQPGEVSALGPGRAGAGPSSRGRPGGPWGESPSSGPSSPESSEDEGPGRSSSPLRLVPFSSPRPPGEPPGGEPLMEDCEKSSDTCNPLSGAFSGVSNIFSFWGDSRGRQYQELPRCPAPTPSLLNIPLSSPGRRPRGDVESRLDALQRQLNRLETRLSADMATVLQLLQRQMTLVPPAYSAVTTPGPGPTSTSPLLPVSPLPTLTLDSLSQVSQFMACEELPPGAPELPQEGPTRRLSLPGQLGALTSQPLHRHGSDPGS
row,Compound,"hERG current change (%, negative = inhibition) at 1uM"
1,Cc1oc2c(C)c3oc(=O)c4c(c3cc2c1C)CCCC4,5.27%
2,Cc1ccc2c(Cl)c(C(=O)NCc3cccnc3)sc2c1,4.38%
3,O=C(NCc1ccc2c(c1)OCO2)c1cc2c(s1)CS(=O)(=O)C2,12.5%
4,CNc1cc(F)nc(F)n1,8.25%
5,CC(=O)c1ccc2c(c1)OCCOCCOCCOCCO2,-3.2%
6,Cc1c(N(C)C(=O)C23CC4CC(CC(C4)C2)C3)c(=O)n(-c2ccccc2)n1C,4.44%
7,Nc1nnc(SCC(=O)OCc2ccc(F)cc2)s1,10.8%
8,CN1CCc2c(n(CC(O)CN(CCO)CCO)c3ccccc23)C1=O.Cl (stereo not shown),6.46%
9,COc1ccc(NC(=S)NC(C)C(c2ccccc2)N2CCOCC2)cc1 (stereo not shown),11.2%
10,Cl.O=C(Cc1ccccc1)OCCN1CCCCC1,12.1%
11,Cc1ccc(C)c(-n2nnnc2SCC(=O)Nc2c(C)n(C)n(-c3ccccc3)c2=O)c1,9.93%
12,O=C(Nc1ncc(Cc2cccc(Cl)c2)s1)C1=NCCN1,10.7%
13,CCCc1nnc(SCC(=O)N2CCCC(C)C2)n1CCCOC (stereo not shown),7.87%
14,Cc1cc(C(C)(C)C)ccc1OCCCCN1CCCC1,0.441%
15,CC(C)(C)C(=O)OCC12CCC(O1)C1(C)C(=O)OCC21 (stereo not shown),26.6%
16,COC(=O)NC1CSCC1OC(=O)CCN1C(=O)c2ccccc2C1=O (stereo not shown),5.79%
17,CCN(Cc1ccccc1)S(=O)(=O)c1ccc(C(=O)N(CCCN(C)C)c2nc3ccc(F)cc3s2)cc1.Cl,16.1%
18,Cc1ccc(N=C2NC(=O)C(CC(=O)NCc3ccccc3)S2)cc1C (stereo not shown),8.3%
19,COCCCNC(=O)CCc1ccccc1,18%
20,C=CCn1c(O)c(N=NC(=O)CNC(=O)Cc2ccccc2)c2ccccc21,11.1%
21,Cc1cccc(NC(=S)N(CCCN(C)C)Cc2cc3cc4c(cc3[nH]c2=O)OCO4)c1,-11.8%
22,COc1cccc(NC(=O)CN(C)C(=O)c2cccc(S(=O)(=O)Nc3ccccc3OC)c2)c1,7.33%
23,O=C(Nc1ccc(F)cc1F)N1CCCC(c2nc(-c3ccc(F)cc3)no2)C1 (stereo not shown),3.73%

row,Compound,"hERG current change (%, negative = inhibition) at 1uM"
1,Cc1nnc(NC(=O)C(C)Oc2ccc3c(C)cc(=O)oc3c2)s1 (stereo not shown),12.7%
2,Cc1ccc(C(C(=O)NC(C)(C)C)N(C(=O)c2csnn2)c2ccccc2F)o1 (stereo not shown),-0.276%
3,COc1ccccc1NC(=O)CNS(=O)(=O)c1ccccc1,3.69%
4,CCS(=O)(=O)Nc1ccc(Cc2ccc(NS(=O)(=O)CC)cc2)cc1,0.871%
5,CCN(CC(=O)NC1CCCC1)S(=O)(=O)c1ccc(F)cc1,12.2%
6,Cn1c(=O)c2c(nc(-c3ccccc3)n2C)n(Cc2ccccc2)c1=O,3.76%
7,COc1cc(CC(=O)OCC(=O)N2C(C)CCCC2C)cc(OC)c1OC (stereo not shown),13.5%
8,CCCCCN1CC(O)=C(c2ccccc2)C1=N,9.11%
9,Oc1cccc(Nc2ccccc2)c1,9.51%
10,Cc1cc(C(=O)N/N=C/c2cc([N+](=O)[O-])ccc2O)c2ccccc2n1,11.8%
11,Cc1cccc(C)c1NC(=O)COC(=O)c1cc[n+]([O-])cc1,14%
12,COc1ccc(C2CCCN2C(=S)Nc2ccccc2C)cc1OC (stereo not shown),11.6%
13,CCc1cccc(CC)c1-n1c(-c2cccnc2)n[nH]c1=S,15.2%
14,CC(=O)Nc1ccc(NC(=O)CCn2nnc3ccccc32)cc1,-2.34%
15,O=C(CCCCn1c(=O)c2ccccc2n(Cc2ccccc2)c1=O)NC1CCN(Cc2ccccc2)CC1,-22.6%
16,Cc1cc(C)n2c(SCc3cccs3)nnc2n1,5.69%
17,C=CCn1c(O)c(C(C)=NCCCn2ccnc2)c(=O)[nH]c1=O,12.1%
18,COc1cccc(COC(=O)Nc2ccccc2F)c1,13%
19,CC(=O)c1cccc(NC(=O)c2ccc(N(Cc3ccccc3C)S(C)(=O)=O)cc2)c1,-3.8%
20,O=C(O)Cc1ccc(NC(=O)C(c2ccccc2)c2ccccc2)cc1,6.62%
21,CC(C(O)c1cc(=O)c(OCc2ccccc2)co1)[N+](=O)[O-] (stereo not shown),16.8%
22,CCN1CCCC1CNC(=S)Nc1ccc(C(C)=O)cc1 (stereo not shown),9.33%
23,Oc1c(C=Nc2cccc3nsnc23)ccc2ccccc12,16.2%

row,Compound,"hERG current change (%, negative = inhibition) at 1uM"
1,COc1ccc(-c2nn(-c3ccccc3)cc2C(N)=O)cc1OC,4.36%
2,Cc1ccc(-c2noc(CN(C(=O)C(c3ccccc3)c3ccccc3)C(C)C)n2)cc1,13.9%
3,Cc1cccc(CN2CCN(CC(=O)NCc3cccs3)C2=O)c1,-12.3%
4,O=C(CCn1nnc2ccccc21)N1CCN(c2ccccc2)CC1,8.73%
5,Cc1c(OC(C)C(=O)NC2CC(C)(C)NC(C)(C)C2)ccc2c3c(c(=O)oc12)CCC3 (stereo not shown),10.6%
6,COc1ccccc1N1CCN(C(=O)c2ccc(Br)s2)CC1.Cl,4.94%
7,O=C(CSc1ncn[nH]1)N1N=C2/C(=C/c3ccco3)CCCC2C1c1ccco1 (stereo not shown),0.0596%
8,Cc1cc(C(=O)N2CCN(c3ccccc3O)CC2)c(C)o1,-4.3%
9,CS(=O)(=O)N1CCN(c2nc(-c3ccc(F)cc3)cs2)CC1,-21%
10,CCOc1nc(Nc2ccc(OC)cc2)nc(N2CCOCC2)n1,4.84%
11,COc1ccc(C(=O)Nc2nnc(SCC(=O)NC3CCCC3)s2)c(OC)c1,14.4%
12,Cc1ccc(S(=O)(=O)N2CCC(C(=O)NNC(=O)C3CC3)CC2)cc1Cl,11.1%
13,C/C(N)=C(/C#N)C(=O)CSc1nc2ccccc2n1CC(C)C,10.1%
14,O=C(CSc1nnc(SCc2ccccc2Cl)s1)N/N=C/c1ccc(C(=O)O)cc1,10.7%
15,CCOC(=O)N1CCC(NC(=O)C2CCN(c3nc(-c4ccc(OC)cc4)no3)CC2)CC1,11.8%
16,CC(C)COP(=O)(OCC(C)C)C(Nc1ccccc1)c1ccc(F)cc1 (stereo not shown),11.5%
17,Oc1ccccc1CNc1cnc2ccccc2c1,3.11%
18,COc1ccc(C(=O)C2CCCN(Cc3cn[nH]c3-c3ccccc3)C2)cc1OC (stereo not shown),-75.4%
19,Cl.Oc1ccc(C2=CSC3=NCCN23)cc1O,3.61%
20,CCOC(=O)C1(CCc2ccccc2)CCN(Cc2ccc(C(=O)OC)cc2)CC1,-86.1%
21,COc1cccc(CNC(=S)NC2CCCC2)c1,4.47%
22,Cl.O=C(NCCN1CCCC1)c1ccc(Br)cc1,3.38%
23,Nc1ccc(C(=O)Nc2ccccc2C(=O)O)cc1,10.2%

row,Compound,"hERG current change (%, negative = inhibition) at 1uM"
1,Cc1cc(C)cc(OCC(=O)OCC(=O)c2cc(C)n(C3CC3)c2C)c1,-2.2%
2,CC1=CC(c2ccc(Cl)cc2)n2nc(NC(=O)CCCC(=O)O)nc2N1 (stereo not shown),15.6%
3,O=C(O)CCCC(=O)Nc1ccc(C(=O)NCc2cccnc2)cc1,11%
4,Cc1ccc(N2C(=O)c3cccc4c(C(=O)O)ccc(c34)C2=O)cc1,12.6%
5,N/C(=N\OC(=O)N1CCOCC1)c1ccc(Br)cc1,9.03%
6,CCOc1ccccc1NC(=O)c1cccc(NC(=O)c2ccco2)c1,-1.6%
7,CCCCC(=O)NC1(C(F)(F)F)C(=O)Nc2c1c(=O)[nH]c(=O)n2Cc1ccco1 (stereo not shown),7.24%
8,Cc1cccc(NC2=NC(C)(C)N=C(N)N2)c1,10.5%
9,CC(C)OC(=O)CSc1nc(N)c(C#N)cc1C#N,5.88%
10,CCCCc1cc(=O)oc2cc(C)cc(OCC(=O)NC(Cc3ccc(Cl)cc3)C(=O)O)c12 (stereo not shown),13.6%
11,CCn1nc(CC(=O)Nc2ccc(-n3cnnn3)c(C)c2)c2ccccc2c1=O,-3.91%
12,Cc1nc2ncnn2c(C)c1CCC(=O)Nc1ccc(S(=O)(=O)N2CCCCCC2)cc1,3.76%
13,COc1ccc(C2=NN(C(=O)CN3CCCC3)C(c3ccc(OC)cc3)C2)cc1 (stereo not shown),0.308%
14,CC1=NNC(=O)/C1=C\c1cn(-c2ccccc2)nc1-c1ccccc1,12%
15,Cn1c2ccccc2c2nnc(SCC(N)=O)nc21,15.4%
16,CC(=O)C1=C(C)NC(=O)NC1c1ccc2c(c1)OCO2 (stereo not shown),11.9%
17,Cc1c2c(nc3c(C(=O)NC4CCCCC4C)cnn13)CCCC2 (stereo not shown),-1.98%
18,CCc1ccc(NC(=O)C(=O)NCC2CCCN2S(=O)(=O)c2ccccc2)cc1 (stereo not shown),9.87%
19,Cc1ccc(C)c(OCCC(=O)OCC(=O)NC2CC2)c1,14.6%
20,CCn1c(O)c(C(=O)CC2NCCc3ccccc32)c(=O)n(CC)c1=S (stereo not shown),16.2%
21,O=C(/C=C/c1ccco1)Oc1cc(Br)cc(/C=N/NC(=O)c2ccccc2O)c1,9.43%
22,COc1ccc2[nH]c(=O)c(C(c3nnnn3C3CCCC3)N(C)C3CCCCC3)cc2c1 (stereo not shown),-3.8%
